Experimental data reported in ChEMBL document CHEMBL1201862, “PubChem BioAssay data set” (2004).

test system: NCI-H322M; experiment: inhibition of tumour cell growth, NCI panel, 48 h

SMILES | GI50
COC(=O)C(CC(C)C)NC(=O)C(Cc1c[nH]cn1)NC(=O)CNC(=O)C(NC(=O)C(C)NC(=O)C(Cc1c[nH]c2ccccc12)NC(=O)C(CCC(=O)O)NC(=O)C(N)Cc1c(F)c(F)c(F)c(F)c1F)C(C)C (stereo not given) (H-[Phe(F5)]EWAVGHL-OMe; configuration not given here) | inactive: > 12.5 µM
CCC(C)C1NC(=O)C(NC(=O)C(CC(C)C)N(C)C(=O)[C@@H]2CC(O)CN2)C(C)OC(=O)[C@H](Cc2ccc(OC)cc2)N(C)C(=O)[C@@H]2CCCN2C(=O)[C@H](CC(C)C)NC(=O)C(C)C(=O)[C@H](C(C)C)OC(=O)CC1O (stereo not given in full) (H-[X29][ξNMeL][ξT][X30]LP[NMeY](Me); ester 3-C) | active: 0.0157 µM
O=C(O)C1C=CCN1C(=O)C1C=CCN1C(=O)C1C=CCN1 (stereo not given) (H-[ΔPro]-[ΔPro]-[ΔPro]-OH; configuration not given here) | inactive: > 100 µM
CC(OC(C)(C)C)C(NC(=O)C(CCCCNC(=O)OC(C)(C)C)NC(=O)C(Cc1c[nH]c2ccccc12)NC(=O)C(N)Cc1ccccc1)C(=O)NC(Cc1ccccc1)C(=O)N[C@@H]1CCC[C@@H]1C(=O)O (stereo not given in full) (H-[ξF][ξW][ξK](Boc)[ξT](tBu)[ξF]-X26) | inactive: 40.1 µM
CCC(C)C(NC(=O)C(Cc1cccs1)NC(=O)C(CC(C)C)NC(=O)C(CC(C)C)NC(=O)C(CCCCN)NC(=O)C(CCCN=C(N)N)NC(=O)[C@H](Cc1ccc(O)cc1)NC(=O)C(NC(=O)C(C)NC(=O)C(N)CC(C)C)C(C)O)C(=O)NC(CC(C)C)C(N)=O (stereo not given in full) (H-[ξL][ξA][ξT]Y[ξR][ξK][ξL][ξL][ξ2Thi][ξI][ξL]-NH2) | inactive: > 50 µM
NCC(=O)NC1(C(=O)O)CCCC1 (HELM PEPTIDE1{G.[O=C(O)C1(N[*:1])CCCC1]}$$$$V2.0) | inactive: > 100 µM
CSCC[C@H](NC(=O)[C@@H](N)CC(N)=O)C(=O)N[C@@H](Cc1c[nH]c2ccccc12)C(=O)N[C@@H](CCC(N)=O)C(=O)N[C@@H](CCC(=O)O)C(=O)N[C@H](C(=O)NCC(=O)N[C@@H](CCCCN)C(=O)N[C@H](C)C(=O)O)C(C)C (HELM PEPTIDE1{N.M.W.Q.E.V.G.K.[dA]}$$$$V2.0) | inactive: > 100 µM
C[C@@H](NC(=O)CNC(=O)OC(C)(C)C)C(=O)N[C@@H](Cc1ccccc1)C(=O)OCc1ccccc1 (HELM PEPTIDE1{[CC(C)(C)OC(=O)[*:2]].G.[dA].F.[c1ccc(CO[*:1])cc1]}$$$$V2.0) | inactive: > 100 µM
COC(=O)[C@H](Cc1ccc(O)cc1)NC(=O)[C@H](Cc1ccc(O)cc1)NC(=O)OC(C)(C)C (HELM PEPTIDE1{[CC(C)(C)OC(=O)[*:2]].Y.Y.[CO[*:1]]}$$$$V2.0) | inactive: > 100 µM
COc1ccc(CNC(=O)[C@@H]2CCCN2C(=O)[C@@H]2CCCN2C(=O)[C@H](C(C)C)N(C)C(=O)[C@@H](NC(=O)[C@H](C(C)C)N(Cc2ccccc2)Cc2ccccc2)C(C)C)cc1OC (HELM PEPTIDE1{[CC(C)[C@@H](C(=O)[*:2])N(Cc1ccccc1)Cc1ccccc1].V.[meV].P.P.[COc1ccc(CN[*:1])cc1OC]}$$$$V2.0) | inactive: 15.6 µM
CCC(C)[C@@H]1NC(=O)[C@@H]2CCCN2C(=O)C(CC(O)CCl)OC(=O)CCNC(=O)[C@H](C)N(C)C(=O)[C@H](C(C)C)N(C)C1=O (stereo not given in full) (HELM PEPTIDE1{[CCC(C)[C@H](N[*:1])C(=O)[*:2]].[meV].[meA].[bAla].[O=C(C(CC(O)CCl)O[*:1])[*:2]].P}$PEPTIDE1,PEPTIDE1,1:R1-6:R2$$$V2.0) | inactive: > 100 µM
CCC(C)[C@@H]1NC(=O)[C@@H]2CCCN2C(=O)C(CC(O)CO)OC(=O)CCNC(=O)[C@H](C)N(C)C(=O)[C@H](C(C)C)N(C)C1=O (stereo not given in full) (HELM PEPTIDE1{[CCC(C)[C@H](N[*:1])C(=O)[*:2]].[meV].[meA].[bAla].[O=C(C(CC(O)CO)O[*:1])[*:2]].P}$PEPTIDE1,PEPTIDE1,1:R1-6:R2$$$V2.0) | inactive: > 100 µM
CCCCCC(=O)N[C@H](C(=O)N[C@H](C(=O)N(C)[C@H](C(=O)N1CCC[C@H]1C(=O)N1CCC[C@H]1C(=O)O[C@H](C(=O)N1C(=O)C=C(OC)[C@@H]1Cc1ccccc1)C(C)C)C(C)C)C(C)C)C(C)C (HELM PEPTIDE1{[CCCCCC(=O)[*:2]].V.V.[meV].P.P.[COC1=CC(=O)N(C(=O)[C@@H](O[*:1])C(C)C)[C@H]1Cc1ccccc1]}$$$$V2.0) | inactive: > 100 µM
O=C(Cc1ccccc1)N[C@@H]1COC(=O)[C@@H]2CCCN2C(=O)[C@@H]2CCCN2C1=O (HELM PEPTIDE1{[O=C(Cc1ccccc1)[*:2]].[O=C([C@@H](CO[*:3])N[*:1])[*:2]].P.P}$PEPTIDE1,PEPTIDE1,2:R3-4:R2$$$V2.0) | inactive: > 100 µM
CC(C)(NC(=O)C(C)(C)NC(=O)OCc1ccccc1)C(=O)O (HELM PEPTIDE1{[O=C(OCc1ccccc1)[*:2]].[Aib].[Aib]}$$$$V2.0) | inactive: > 100 µM
NC(=O)CNC(=O)C1CC(O)CN1C(=O)OCc1ccccc1 (stereo not given) (HELM PEPTIDE1{[O=C(OCc1ccccc1)[*:2]].[O=C(C1CC(O)CN1[*:1])[*:2]].G.[am]}$$$$V2.0) | inactive: > 100 µM
CC(C)C[C@H](NC(=O)[C@H](CC(C)C)NC(=O)[C@@H](Cc1c[nH]c2ccccc12)NC(=O)[C@H](Cc1ccccc1)NC(=O)[C@@H](Cc1c[nH]c2ccccc12)NC(=O)[C@H](CCC(N)=O)NC(=O)[C@@H](CCC(N)=O)NC(=O)[C@@H]1CCCN1C(=O)[C@@H](CCCCN)NC(=O)[C@H]1CCCN1C(=O)[C@H](N)CCCN=C(N)N)C(N)=O (HELM PEPTIDE1{[dR].[dP].[dK].P.[dQ].Q.[dW].F.[dW].L.L.[am]}$$$$V2.0) | inactive: > 100 µM
N=C(N)NCCC[C@H](NC(=O)[C@@H]1CC2CCCCC2N1C(=O)[C@@H](NC(=O)[C@H](CO)NC(=O)[C@@H](NC(=O)CNC(=O)[C@@H]1CCCN1C(=O)[C@H](CCCNC(=N)N)NC(=O)[C@H](CCCNC(=N)N)NC(=N)CCCCCCC(=N)N[C@@H](CCCNC(=N)N)C(=O)N[C@@H](CCCNC(=N)N)C(=O)N1CCC[C@H]1C(=O)N1C[C@H](O)C[C@H]1C(=O)NCC(=O)N[C@H](C(=O)N[C@@H](CO)C(=O)N[C@H](C(=O)N1C2CCCCC2C[C@H]1C(=O)N[C@@H](CCCNC(=N)N)C(=O)O)C1Cc2ccccc2C1)C1Cc2ccccc2C1)C1Cc2ccccc2C1)C1Cc2ccccc2C1)C(=O)O (stereo not given in full) (I: RP[Hyp]G[Igl]S[Igl][Oic(3aξ,7aξ)]R-OH / II: RPG[Igl]S[Igl][Oic(3aξ,7aξ)]R-OH; linker I:N-II:N via X36) | inactive: 2.43 µM
Cc1c2oc3c(C)ccc(C(=O)NC4C(=O)NC(Cc5ccccc5)C(=O)N5CCCC5C(=O)N(C)CC(=O)N(C)C(C(C)C)C(=O)OC4C)c3nc-2c(C(=O)NC2C(=O)NC(Cc3ccccc3)C(=O)N3CCCC3C(=O)N(C)CC(=O)N(C)C(C(C)C)C(=O)OC2C)c(N)c1=O (stereo not given) (I: TFP[Sar][NMeV] / II: TFP[Sar][NMeV]; ester I:1-I:C, II:1-II:C; linker I:N-II:N via Actinocin(9to1); configuration not given here) | active: < 0.001 µM
CCC(C)C1NC(=O)C(NC(=O)c2c3nc4c(C(=O)NC5C(=O)NC(C(C)C)C(=O)N6CCCC6C(=O)N(C)CC(=O)N(C)C(C(C)C)C(=O)OC5C)ccc(C)c4oc-3c(C)c(=O)c2N)C(C)OC(=O)C(C(C)C)N(C)C(=O)CN(C)C(=O)C2CCCN2C1=O (stereo not given) (I: TIP[Sar][NMeV] / II: TVP[Sar][NMeV]; ester I:1-I:C, II:1-II:C; linker I:N-II:N via Actinocin(1to9); configuration not given here) | active: 0.000107 µM
Cc1c2oc3c(C)ccc(C(=O)NC4C(=O)NC(C(C)O)C(=O)N5CCCC5C(=O)N(C)CC(=O)N(C)C(C(C)C)C(=O)OC4C)c3nc-2c(C(=O)NC2C(=O)NC(C(C)O)C(=O)N3CCCC3C(=O)N(C)CC(=O)N(C)C(C(C)C)C(=O)OC2C)c(N)c1=O (stereo not given) (I: TTP[Sar][NMeV] / II: TTP[Sar][NMeV]; ester I:1-I:C, II:1-II:C; linker I:N-II:N via Actinocin(9to1); configuration not given here) | active: 0.526 µM
Cc1c2oc3c(C)ccc(C(=O)NC4C(=O)NC(C(C)C)C(=O)N5CCCC5C(=O)N(C)CC(=O)N(C)C(Cc5ccccc5)C(=O)OC4C)c3nc-2c(C(=O)NC2C(=O)NC(C(C)C)C(=O)N3CCCC3C(=O)N(C)CC(=O)N(C)C(Cc3ccccc3)C(=O)OC2C)c(N)c1=O (stereo not given) (I: TVP[Sar][NMeF] / II: TVP[Sar][NMeF]; ester I:1-I:C, II:1-II:C; linker I:N-II:N via Actinocin(9to1); configuration not given here) | active: < 10 nM and active: 17.9 nM
Cc1c2oc3c(C)ccc(C(=O)NC4C(=O)NC(C(C)C)C(=O)N5CCCC5C(=O)N(C)CC(=O)N(C)C(Cc5cnc[nH]5)C(=O)OC4C)c3nc-2c(C(=O)NC2C(=O)NC(C(C)C)C(=O)N3CCCC3C(=O)N(C)CC(=O)N(C)C(Cc3cnc[nH]3)C(=O)OC2C)c(N)c1=O (stereo not given) (I: TVP[Sar][NMeH] / II: TVP[Sar][NMeH]; ester I:1-I:C, II:1-II:C; linker I:N-II:N via Actinocin(9to1); configuration not given here) | inactive: 67.3 µM
Cc1c2oc3c(C)ccc(C(=O)NC4C(=O)NC(C(C)C)C(=O)N5CCCC5C(=O)N(C)CC(=O)N(C)C(C(C)C)C(=O)OC4C)c3nc-2c(C(=O)NC2C(=O)NC(C(C)C)C(=O)N3CCCC3C(=O)N(C)CC(=O)N(C)C(C(C)C)C(=O)OC2C)c(N)c1=O (stereo not given) (I: TVP[Sar][NMeV] / II: TVP[Sar][NMeV]; ester I:1-I:C, II:1-II:C; linker I:N-II:N via Actinocin(9to1); configuration not given here) | active: 0.000604 µM
Cc1c2oc3c(C)ccc(C(=O)NC4C(=O)NC(C(C)C)C(=O)N5CC(O)CC5C(=O)N(C)CC(=O)N(C)C(C(C)C)C(=O)OC4C)c3nc-2c(C(=O)NC2C(=O)NC(C(C)C)C(=O)N3CC(O)CC3C(=O)N(C)CC(=O)N(C)C(C(C)C)C(=O)OC2C)c(N)c1=O (stereo not given) (I: TV[Hyp][Sar][NMeV] / II: TV[Hyp][Sar][NMeV]; ester I:1-I:C, II:1-II:C; linker I:N-II:N via Actinocin(9to1); configuration not given here) | active: > 1 µM

Values joined by “and” are separate entries in the source; they are usually repeats but may differ in a detail not shown here. Identical values can stand only once.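 In this assay, cells in 96-well plates receive the compound at five concentrations for 48 hours. Endpoints are linearly interpolated between the surrounding concentrations. The concentration for 50% growth inhibition is given as GI50.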 Active and inactive are the calls of the source. Cut-off read from the data, not from the text of the source: active = GI50 up to about 1.1 µM and inactive = higher. Numbered stars: 1 amine (or outer) side, 2 acyl side, 3 side chain; on linkers, the order of the positions; unused ones are H or OH. Bridge positions count the residues as written; N and C are the ends. Square brackets hold non-standard residues; d marks the D form. Peptide text beside a SMILES is read from it. I, II: the chains in the order shown. * marks the point of attachment. ξ: configuration not given here. X36 = N=C(N)NCCC[C@H](NC(=N)CCCCCCC(=N)N[C@@H](CCCNC(=N)N)C(=O)[*:2])C(=O)[*:1]; Actinocin(1to9) = Cc1c2oc3c(C)ccc(C(=O)[*:2])c3nc-2c(C(=O)[*:1])c(N)c1=O; Actinocin(9to1) = Cc1c2oc3c(C)ccc(C(=O)[*:1])c3nc-2c(C(=O)[*:2])c(N)c1=O; X30 = CCC(C)C(N[*:1])C(O)CC(=O)O[C@H](C(=O)C(C)C(=O)[*:2])C(C)C; Phe(F5) = N[CH](Cc1c(F)c(F)c(F)c(F)c1F)C(=O)O; Oic(3aξ,7aξ) = O=C(O)[C@@H]1CC2CCCCC2N1; X29 = O=C([C@@H]1CC(O)CN1[*:1])[*:2]; NMeY = CN[C@@H](Cc1ccc(O)cc1)C(=O)O; Igl = N[C@H](C(=O)O)C1Cc2ccccc2C1; Hyp = O=C(O)[CH]1C[CH](O)CN1; NMeH = CN[CH](Cc1c[nH]cn1)C(=O)O; ξW = NC(Cc1c[nH]c2ccccc12)C(=O)O; NMeF = CN[CH](Cc1ccccc1)C(=O)O; X26 = O=C(O)[C@H]1CCC[C@H]1N*; NMeV = CN[CH](C(=O)O)C(C)C; ξ2Thi = NC(Cc1cccs1)C(=O)O; ξNMeL = CNC(CC(C)C)C(=O)O; ξR = N=C(N)NCCCC(N)C(=O)O; ΔPro = O=C(O)[CH]1C=CCN1; ξF = NC(Cc1ccccc1)C(=O)O; Boc = CC(C)(C)OC(=O)*; ξI = CCC(C)C(N)C(=O)O; ξL = CC(C)CC(N)C(=O)O; ξK = NCCCCC(N)C(=O)O; ξT = CC(O)C(N)C(=O)O; ξA = CC(N)C(=O)O; Sar = CNCC(=O)O; tBu = CC(C)(C)*
